Results are given in words; binding and its absence hold for the method and conditions named. Binding seen in cells or lysates may run through a third protein. Some results given as binding are weak or reduced against the parent protein; the word gives no strength. Where a sequence is shown, tags or fusion partners need not be part of it.
Molecular target: NCoR (nuclear receptor co-repressor), exogenous (transfected; tag not given), O75376
Test: co-IP; Co-IP combined with Re-IP: MDA-MB-231 cells transfected with indicated plasmids, anti-FLAG agarose, elution with FLAG peptide, re-immunoprecipitation with anti-MYC or normal IgG, immunoblot
Settings: remark: other sources report otherwise

B1: HDAC3 (histone deacetylase 3), exogenous (transfected; tag not told in the text), O15379 1-428 (enzyme)
chain: MAKTVAYFYDPDVGNFHYGAGHPMKPHRLALTHSLVLHYGLYKKMIVFKPYQASQHDMCRFHSEDYIDFLQRVSPTNMQGFTKSLNAFNVGDDCPVFPGLFEFCSRYTGASLQGATQLNNKICDIAINWAGGLHHAKKFEASGFCYVNDIVIGILELLKYHPRVLYIDIDIHHGDGVQEAFYLTDRVMTVSFHKYGNYFFPGTGDMYEVGAESGRYYCLNVPLRDGIDDQSYKHLFQPVINQVVDFYQPTCIVLQCGADSLGCDRLGCFNLSIRGHGECVEYVKSFNIPLLVLGGGGYTVRNVARCWTYETSLLVEEAISEELPYSEYFEYFAPDFTLHPDVSTRIENQNSRQYLDQIRQTIFENLKMLNHAPSVQIHDVPADLLTYDRTDEADAEERGPEENYSRPEAPNEFYDGDHDNDKESDVEI
binding: binds

Reference: article PMC9507357
